Source: patent US20050142568A1 (published 2005)

Assays:
Assay in all cases: GST pull-down, 35S-Met protein vs GST fusion; - means no detectable binding (footnote a)
[1] = molecular target: T1, full-length ^35S-methionine labeled CPS-6 (C. elegans, UniProt Q95NM6 1-308, 35S-methionine labelled)
T1 construct: also called ^35S-CPS-6
T1 sequence (looked up): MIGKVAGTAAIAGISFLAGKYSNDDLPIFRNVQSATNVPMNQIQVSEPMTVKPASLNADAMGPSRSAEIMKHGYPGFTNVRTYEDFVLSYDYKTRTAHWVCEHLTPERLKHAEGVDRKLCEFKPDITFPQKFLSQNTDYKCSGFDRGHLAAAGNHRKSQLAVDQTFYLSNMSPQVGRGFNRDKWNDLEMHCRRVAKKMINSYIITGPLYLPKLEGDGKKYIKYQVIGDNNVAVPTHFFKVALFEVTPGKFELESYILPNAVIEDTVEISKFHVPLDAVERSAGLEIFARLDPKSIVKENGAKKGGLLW
Description: (§1) GST fusion protein pull-down assays were performed as described in J. Parrish, H. Metters, L. Chen, D. Xue, Proc. Natl. Acad. Sci. U.S.A. 97, 11916 (2000). Purified GST or GST-fusion proteins (5 μg each) immobilized on glutathione sepharose beads were incubated with ³⁵S-Methionine labeled proteins at 4° C. for 2 hours. The beads were washed extensively and the bound proteins were resolved on a 12% SDS-PAGE and visualized by autoradiography. [0103] cDNAs corresponding to the ORFs were cloned into the pPD129.36 vector via its Nhe I and Xho I sites or the Xho I site alone. Full-length cDNAs were subcloned into the pGEX4T-2 vector for generating GST fusion proteins and for further protein purification and into the pcDNA3.1 vector for in vitro transcription/translation experiments.
(§2) ^aInteractions were evaluated relative to background binding of ³⁵S-Methionine labeled Luciferase to GST-fusion proteins and ³⁵S-Methionine labeled proteins to GST. “−” indicates no detectable binding, “+” indicates an interaction consistently observed above background levels, and “++” indicates a strong interaction. ^bBecause ³⁵S-Methionine labeled CRN-1 binds GST tightly, it was not possible to evaluate interactions between ³⁵S-CRN-1 and various GST-fusion proteins. ND, not determined.

[2] = molecular target: T2, ^35S-Methionine labeled NUC-1 (C. elegans, UniProt Q17778 22-375, 35S-methionine labelled)
T2 sequence (looked up): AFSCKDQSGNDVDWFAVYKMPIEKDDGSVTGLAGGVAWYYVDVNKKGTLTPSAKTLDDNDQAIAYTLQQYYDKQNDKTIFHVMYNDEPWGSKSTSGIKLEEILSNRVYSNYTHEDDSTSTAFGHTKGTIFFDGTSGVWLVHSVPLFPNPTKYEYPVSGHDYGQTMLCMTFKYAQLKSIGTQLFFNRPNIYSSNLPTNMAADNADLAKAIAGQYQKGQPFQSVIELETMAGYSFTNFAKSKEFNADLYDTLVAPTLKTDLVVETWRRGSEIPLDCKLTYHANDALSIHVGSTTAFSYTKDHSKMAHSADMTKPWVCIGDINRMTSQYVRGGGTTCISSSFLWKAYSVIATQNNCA
Description: as §1, §2

[3] = molecular target: T3, ^35S-Methionine labeled CRN-3 (C. elegans, UniProt G5EBX6 1-876)
T3 sequence: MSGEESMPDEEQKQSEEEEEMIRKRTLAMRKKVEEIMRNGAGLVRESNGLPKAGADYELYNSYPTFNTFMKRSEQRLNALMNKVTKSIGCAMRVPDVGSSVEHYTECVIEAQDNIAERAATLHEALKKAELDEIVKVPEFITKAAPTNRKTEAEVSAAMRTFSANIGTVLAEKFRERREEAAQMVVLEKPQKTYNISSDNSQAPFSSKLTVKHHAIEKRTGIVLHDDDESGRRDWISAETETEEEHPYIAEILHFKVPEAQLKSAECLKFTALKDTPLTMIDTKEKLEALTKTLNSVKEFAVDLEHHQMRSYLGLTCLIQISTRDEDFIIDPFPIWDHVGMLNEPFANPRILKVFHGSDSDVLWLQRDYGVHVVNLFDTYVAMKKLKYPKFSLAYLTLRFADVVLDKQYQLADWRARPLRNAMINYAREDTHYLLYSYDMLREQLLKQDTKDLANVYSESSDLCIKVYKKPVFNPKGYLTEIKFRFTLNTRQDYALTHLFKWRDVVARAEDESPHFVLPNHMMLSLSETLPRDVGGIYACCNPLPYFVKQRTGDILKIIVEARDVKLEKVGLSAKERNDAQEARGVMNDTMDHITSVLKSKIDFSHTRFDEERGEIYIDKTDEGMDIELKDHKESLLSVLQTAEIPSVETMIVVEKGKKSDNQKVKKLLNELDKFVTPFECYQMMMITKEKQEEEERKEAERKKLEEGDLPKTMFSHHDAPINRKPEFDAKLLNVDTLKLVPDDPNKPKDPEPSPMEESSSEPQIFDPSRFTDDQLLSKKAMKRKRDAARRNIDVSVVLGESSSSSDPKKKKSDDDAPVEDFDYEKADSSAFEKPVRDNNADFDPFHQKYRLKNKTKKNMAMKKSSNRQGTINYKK
Description: as §1, §2

[4] = molecular target: T4, ^35S-Methionine labeled CRN-4 (C. elegans, UniProt Q10905 1-298, 35S-methionine labelled)
T4 sequence (looked up): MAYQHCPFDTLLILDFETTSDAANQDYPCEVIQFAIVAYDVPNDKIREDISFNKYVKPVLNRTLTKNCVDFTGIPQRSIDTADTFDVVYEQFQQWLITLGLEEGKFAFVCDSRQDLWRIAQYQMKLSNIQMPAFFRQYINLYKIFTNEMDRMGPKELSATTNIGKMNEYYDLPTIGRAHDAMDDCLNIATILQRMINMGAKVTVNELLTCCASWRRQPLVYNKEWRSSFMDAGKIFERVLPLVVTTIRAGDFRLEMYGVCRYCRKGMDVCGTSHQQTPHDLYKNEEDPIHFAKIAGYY
Description: as §1, §2

[5] = molecular target: T5, ^35S-Methionine labeled CRN-6 (C. elegans, UniProt P34508-2 18-373, limits assumed, 35S-methionine labelled)
T5 sequence (looked up): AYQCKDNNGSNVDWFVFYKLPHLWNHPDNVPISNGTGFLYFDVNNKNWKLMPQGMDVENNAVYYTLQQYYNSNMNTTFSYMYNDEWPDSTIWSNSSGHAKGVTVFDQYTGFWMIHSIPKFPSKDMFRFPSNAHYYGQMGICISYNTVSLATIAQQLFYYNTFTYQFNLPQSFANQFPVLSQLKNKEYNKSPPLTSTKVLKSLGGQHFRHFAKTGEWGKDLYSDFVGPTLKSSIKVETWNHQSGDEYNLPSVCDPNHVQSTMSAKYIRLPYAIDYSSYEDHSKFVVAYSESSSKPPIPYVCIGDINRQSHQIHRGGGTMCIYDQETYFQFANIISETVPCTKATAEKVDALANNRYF
Description: as §1, §2

Measured: binding result

B1: GST (glutathione-S transferase alone) (enzyme)
chain: not shown
notes: Purified GST used as negative control bait on glutathione sepharose beads; also called OST
no binding: all assays above

B2: GST-CRN-6 (other)
chain: [about 200 residues omitted here]MIRQIILIVSLIGISNAAYQCKDNNGSNVDWFVFYKLPHLWNHPDNVPISNGTGFLYFDVNNKNWKLMPQGMDVENNAVYYTLQQYYNSNMNTTFSYMYNDEWPDSTIWSNSSGHAKGVTVFDQYTGFWMIHSIPKFPSKDMFRFPSNAHYYGQMGICISYNTVSLATIAQQLFYYNTFTYQFNLPQSFANQFPVLSQLKNKEYNKSPPLTSTKVLKSLGGQHFRHFAKTGEWGKDLYSDFVGPTLKSSIKVETWNHQSGDEYNLPSVCDPNHVQSTMSAKYIRLPYAIDYSSYEDHSKFVVAYSESSSKPPIPYVCIGDINRQSHQIHRGGGTMCIYDQETYFQFANIISETVPCTKATAEKVDALANNRYF
notes: Two crn-6 cDNAs (700 bp and 1.1 kb) were isolated; the longer one made the GST fusion; also called CRN-6 GST-fusion protein
no binding: [3]
